Consider 44 compounds from paper PMC4336329 (PLoS ONE, 2015).

The structures appear in SMILES notation. The whole screen tested about 310,000 compounds, of which about 14,000 (4.5%) showed an effect of 50% or more. Effects have a minus sign here. This is one part of the list.
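Also: peak tail current of the secondary pulse compared with the same well before compound.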

Chain of human ether-à-go-go-related gene (hERG) potassium channel (Q12809 whole entry, looked up): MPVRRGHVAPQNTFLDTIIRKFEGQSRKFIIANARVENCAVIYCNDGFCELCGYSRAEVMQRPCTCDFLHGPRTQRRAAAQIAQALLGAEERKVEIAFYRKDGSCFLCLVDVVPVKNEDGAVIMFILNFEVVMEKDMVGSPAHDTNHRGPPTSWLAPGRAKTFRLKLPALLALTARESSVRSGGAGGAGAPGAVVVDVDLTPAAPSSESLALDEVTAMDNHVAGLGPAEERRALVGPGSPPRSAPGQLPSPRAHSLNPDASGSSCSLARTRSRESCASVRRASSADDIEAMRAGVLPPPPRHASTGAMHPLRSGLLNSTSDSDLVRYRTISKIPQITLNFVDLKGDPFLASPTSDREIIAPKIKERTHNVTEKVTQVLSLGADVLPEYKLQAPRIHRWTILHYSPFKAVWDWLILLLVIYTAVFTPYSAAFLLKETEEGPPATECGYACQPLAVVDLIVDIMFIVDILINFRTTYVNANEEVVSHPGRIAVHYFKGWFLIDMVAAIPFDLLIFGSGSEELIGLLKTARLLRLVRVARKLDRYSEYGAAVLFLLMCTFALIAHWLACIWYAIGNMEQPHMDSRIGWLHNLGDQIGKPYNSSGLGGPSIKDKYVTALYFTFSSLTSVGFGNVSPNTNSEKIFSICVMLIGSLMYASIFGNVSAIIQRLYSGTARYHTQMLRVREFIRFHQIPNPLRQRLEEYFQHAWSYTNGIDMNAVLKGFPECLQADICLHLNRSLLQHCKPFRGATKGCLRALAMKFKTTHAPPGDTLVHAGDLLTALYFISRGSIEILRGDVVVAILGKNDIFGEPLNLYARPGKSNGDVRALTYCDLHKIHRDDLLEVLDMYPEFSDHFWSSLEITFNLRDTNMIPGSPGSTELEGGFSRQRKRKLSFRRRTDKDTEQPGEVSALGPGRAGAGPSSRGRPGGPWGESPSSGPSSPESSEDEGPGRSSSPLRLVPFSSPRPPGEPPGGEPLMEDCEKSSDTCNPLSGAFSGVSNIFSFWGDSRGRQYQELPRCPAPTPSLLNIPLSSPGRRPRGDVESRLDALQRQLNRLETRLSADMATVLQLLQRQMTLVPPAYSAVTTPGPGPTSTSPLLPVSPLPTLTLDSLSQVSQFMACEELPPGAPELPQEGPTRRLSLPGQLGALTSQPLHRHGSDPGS

This assay addresses human ether-à-go-go-related gene (hERG) potassium channel (human, UniProt Q12809). The assay is described as follows: primary screen, population patch clamp on CHO cells stably expressing hERG.
Turning to `Cc1cc(C)cc(NC(=O)NC(C)C2CCCO2)c1` (centres unmarked), the “hERG current change (%, negative = inhibition) at 10uM” value is 13.3%.

Regarding `CCN(CC)CCOC(=O)c1ccc(N/C=C(/C#N)c2nc(-c3ccc(OC)cc3)cs2)cc1`, the “hERG current change (%, negative = inhibition) at 10uM” value was found to be 17.9%.

Consider `CN1CCN(CC(=O)c2ccccc2F)CC1.O=C(O)C(=O)O`, for which the “hERG current change (%, negative = inhibition) at 10uM” value worked out at 14.2%.

As to `O=C(N/N=C/c1cc([N+](=O)[O-])ccc1O)c1cc(-c2ccccc2)nc2ccccc12`, the “hERG current change (%, negative = inhibition) at 10uM” value worked out at 12.3%.

`COC(=O)c1cccc(Nc2ccc([N+](=O)[O-])cn2)c1`: the “hERG current change (%, negative = inhibition) at 10uM” value was 5.91%.

With `Cc1cccc(S(=O)(=O)NC(Cc2c[nH]c3ccccc23)C(=O)O)c1` (centres unmarked), the “hERG current change (%, negative = inhibition) at 10uM” value is listed as 6.03%.

As to `COc1ccccc1CN(C)C(=O)CSc1nnc(C2CC2)n1C1CC1`, the “hERG current change (%, negative = inhibition) at 10uM” value is 6.78%.

On to `COc1ccc(-c2cc(C(=O)N3CCN(C(=O)c4ccco4)CC3)[nH]n2)cc1`, for which the “hERG current change (%, negative = inhibition) at 10uM” value is -31.6%.

For `O=C(CSC1=NS(=O)(=O)c2cc(F)ccc2N1)Nc1ccccc1`, the “hERG current change (%, negative = inhibition) at 10uM” value is 7.5%.

For `O=C(CCC(=O)Nc1ccc(F)cc1)N/N=C/c1ccc(O)cc1`, the “hERG current change (%, negative = inhibition) at 10uM” value was 12.4%.

On to `COc1cc(C(c2c(C)[nH][nH]c2=O)c2c(C)[nH][nH]c2=O)cc([N+](=O)[O-])c1O`, for which the “hERG current change (%, negative = inhibition) at 10uM” value is reported as 11.3%.

`COCc1cc(=O)oc2cc(NS(=O)(=O)c3ccc(C)cc3)ccc12`: the “hERG current change (%, negative = inhibition) at 10uM” value turned out to be 16.6%.

In the case of `COc1ccc(OCc2cc(C(=O)N[C@H]3CCCCNC3=O)no2)c(Cl)c1`, the “hERG current change (%, negative = inhibition) at 10uM” value was -5.35%.

For `CCN(C(=O)COC(=O)CCOc1ccccc1)c1c(N)n(Cc2ccccc2)c(=O)[nH]c1=O`, the “hERG current change (%, negative = inhibition) at 10uM” value came to 16.1%.

`Cc1cc(C(=O)O)c(C)n1Cc1ccncc1`: the “hERG current change (%, negative = inhibition) at 10uM” value turned out to be 12.6%.

Regarding `Cc1ccc(C)c(N2CCN(C(=O)C3CCC3)CC2)c1`, the “hERG current change (%, negative = inhibition) at 10uM” value is 10.1%.

With `Cn1nnnc1SCc1ccc(C(=O)Nc2ccccc2F)cc1`, the “hERG current change (%, negative = inhibition) at 10uM” value is given as 8.72%.

On to `CC(C)(C)c1nc2c(s1)CCc1onc(-c3ccc(Cl)cc3)c1-2`, for which the “hERG current change (%, negative = inhibition) at 10uM” value was 8.27%.

Turning to `Cc1ccc(N(CC(=O)NCC2CCCO2)S(=O)(=O)c2ccc(Cl)cc2)cc1C` (centres unmarked), the “hERG current change (%, negative = inhibition) at 10uM” value is -19%.

Turning to `COc1ccc(S(=O)(=O)N2CCN(CC(=O)c3[nH]c(C)c(C(C)=O)c3C)CC2)cc1OC`, the “hERG current change (%, negative = inhibition) at 10uM” value is 6.3%.

For the compound `Cc1ccnc(NC(=O)c2cc3cc(F)ccc3s2)c1`, the “hERG current change (%, negative = inhibition) at 10uM” value is 15.8%.

On to `Cc1ccc2cc(C3CC(c4ccco4)=NN3C(=O)CCC(=O)O)c(Cl)nc2c1` (centres unmarked), for which the “hERG current change (%, negative = inhibition) at 10uM” value is reported as -1.49%.

Consider `CCC/C(=N/NC(=O)c1cccc(Cl)c1)c1ccccc1`, for which the “hERG current change (%, negative = inhibition) at 10uM” value came out at 6.71%.

For the compound `O=C(O)Cc1ccc(OCc2ccc(Cl)nc2)cc1`, the “hERG current change (%, negative = inhibition) at 10uM” value is reported as 7.98%.

Take `Nc1ccc(N2CCCCC2)cc1N1CCCCC1`: the “hERG current change (%, negative = inhibition) at 10uM” value is listed as 9.08%.

On to `COc1ccc(C(=O)Nc2ccc(C3=NNC(=O)CC3C)cc2NC(=O)c2ccc(OC)cc2)cc1` (centres unmarked), for which the “hERG current change (%, negative = inhibition) at 10uM” value was -18.9%.

Turning to `CCOc1ccc(CN2C(=O)c3ccccc3C2C(=O)NCc2cccnc2)cc1` (centres unmarked), the “hERG current change (%, negative = inhibition) at 10uM” value is reported as -25.1%.

In the case of `CCCc1nc(-c2cc3ccccc3[nH]c2=O)no1`, the “hERG current change (%, negative = inhibition) at 10uM” value came out at 12.9%.

Regarding `CC(=O)c1ccc(C(C)(C)c2ccc(C(C)=O)s2)s1`, the “hERG current change (%, negative = inhibition) at 10uM” value is reported as -4.83%.

Take `COc1ccc(C2=NOC(C(=O)NCc3ccccn3)C2)cc1` (centres unmarked): the “hERG current change (%, negative = inhibition) at 10uM” value came out at 9.02%.

For `O=C(Nc1cccc(-c2csc(Nc3ccc(Cl)cc3)n2)c1)c1cc([N+](=O)[O-])cc(C(F)(F)F)c1`, the “hERG current change (%, negative = inhibition) at 10uM” value was 5.87%.

As for `Cn1c(=O)c(N=O)c(N)n(Cc2ccccc2)c1=S`, the “hERG current change (%, negative = inhibition) at 10uM” value was found to be 7.27%.

For the compound `N#CC1(NC(=O)COC(=O)c2ccc(Cl)nc2)CCCCC1`, the “hERG current change (%, negative = inhibition) at 10uM” value is given as 10.9%.

As to `COc1cccc(OCCNc2cc(Cl)ccc2[N+](=O)[O-])c1`, the “hERG current change (%, negative = inhibition) at 10uM” value is listed as 11.3%.

Take `CCOC(=O)Cc1csc(SCC(=O)N(CC(C)C)c2c(N)n(Cc3ccccc3)c(=O)[nH]c2=O)n1`: the “hERG current change (%, negative = inhibition) at 10uM” value is recorded as 1.41%.

Turning to `Cc1cc(C)cc(-n2ncc3c2CCCC3NC(=O)CN2CCCC2=O)c1` (centres unmarked), the “hERG current change (%, negative = inhibition) at 10uM” value is given as 30.3%.

For the compound `CC(=O)N1c2ccc(S(=O)(=O)N(C)CC(=O)NC(C)c3ccccc3)cc2CC1C` (centres unmarked), the “hERG current change (%, negative = inhibition) at 10uM” value is 1.89%.

As to `Cc1cc([N+](=O)[O-])cc2c1NCC1CC=CC21` (centres unmarked), the “hERG current change (%, negative = inhibition) at 10uM” value is listed as -30.7%.

`O=C(Nc1ccccc1F)N1CCc2ccccc2C1`: the “hERG current change (%, negative = inhibition) at 10uM” value came to 16.8%.

Regarding `O=C(CSc1nnc(CNC(=O)c2cccs2)o1)NC1CCCCC1`, the “hERG current change (%, negative = inhibition) at 10uM” value is on record as -24%.

Turning to `CN(C)S(=O)(=O)Nc1ccc(C(=O)O)cc1`, the “hERG current change (%, negative = inhibition) at 10uM” value is reported as -1.57%.

For `CC(=O)c1cc2c(cc1N)OCO2`, the “hERG current change (%, negative = inhibition) at 10uM” value was 0.058%.

As to `COc1ccc(N2CC(C)(C)C2=O)cc1`, the “hERG current change (%, negative = inhibition) at 10uM” value worked out at 18.7%.

In the case of `CCO[C@@H]1OC(C(=O)N2CCN(Cc3ccccc3)CC2)=C[C@H](c2ccc(C(F)(F)F)cc2)[C@H]1CCCO`, the “hERG current change (%, negative = inhibition) at 10uM” value is -19.7%.
